This sample is rich in variants without activity.
B1: TPR 5TU (parent)
chain: GGAUCUUCUCGAUCUAACAAAAAAGACAAAUCUGCCACAAAGCUUGAGAGCAUCUUCGGAUGCAGAGGCGGCAGCCUUCGGUGGCGCGAUAGCGCCAACGUUCUCAACUAUGACACGCAAAACGCGUGCUCCGUUGAAUGGAGUUUAUCAUG

Variants of: B1
Assay: polymerase ribozyme fitness, log enrichment relative to wild type (log ratio); higher = more active; in vitro selection for triplet polymerase activity
Method in brief: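 Only genotypes with ≥10 input reads and ≥1 read per output were kept after Illumina sequencing of input and output libraries. These libraries were PCR-built, transcribed mutants of each subunit of a heterodimeric triplet polymerase ribozyme, each put through one triplicate in vitro selection round with frozen incubation at −7 °C, gel excision of extended constructs, streptavidin-bead capture and RT-PCR. Fitness is a logarithmic ratio of genotype enrichment to wild-type enrichment, from inverse-variance-weighted replicate averages, with the logarithm in base 2.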

Polymerase ribozyme fitness (log ratio), ≤ -4.2:
U9A A60C C85G C99G G117A G133C U139C U144C U148C
U9A A137G
U9A C14A C93U
U9A C14A G88C C95U
U9A C14G G42C C54U U61A C79U C87U
U9A C27U C36A G42C C69A G80A G136U G141C
U9A C27U G67C A73G C93U G126C C132A
U9A C32U
U9A C32U U55A
U9A C38A C43U G94U U139A
U9A C38A C72A G84A C125U
U9A C63U C85U U90A G140U
U9A C75G C85G C95G
U9A C75U G88C C99G U101A C118U A137C
U9A C76A C85U G100C U104G A115U
U9A C93G
U9A C93U C99A
U9A G11A A24G A26U G74A G80U C87U G94C A115C U146G U151A
U9A G11A A29G C35U A49G C87U G92A U127C G128C
U9A G11A A30U G74U U104C
U9A G11A C54A G59A C75G G84A
U9A G11C A24G A28U A37C G59C A60C A122G U127G G128A
U9A G11U C54U A66G C72U G81C C96A A107G G133U U145A
U9A G25A A52U C149U
U9A G25C C38U G71U U135C A147G
U9A G34C C95A
U9A G42U A66U C87A U145C
U9A G46A G67A C85A A147G U151A
U9A G48A C51A G94U
U9A G59A C75U G81A A89U U101A A106G
U9A G67A G84A
U9A G68C C103G A119C
U9A G68U A110G A138U G140C
U9A G71C C85U
U9A G74A A106G A122U
U9A G84U U102A
U9A G94U C95U C103G C132U
U9A G94U C108A C116U
U9A U13A A29G C96A C132A
U9A U15G A20C C85G C96A A106U C118A G128U
U9A U15G U44A G48A U53A C57U A64G U90G U130C
U9A U31G C57U G74C G92C
U9A U33G C96A C99U A122U
U9A U33G U77G A121C A142C A150U
U9A U45A U53A G58A C96U A98G A120C U134G G143A
U9A U53A C116U G124U
U9A U55A G74C A97U
U9A U56A C72A G83C A91G C114U G141U G143A
U9A U56A C93A C108G G140U
U9A U61A C95A G136A G143U
U9A U135G
U9C A12C A20G U53A A73U G92U C114A A121U G140A U151A
U9C A12C C76A A91G A120G A147U
U9C A12G A22U C75G G83C C85A C99A
U9C A16G A40U G50A C95G A115U C131G
U9C A16U C79U C87A G94U C131A A142U
U9C A17C C54U A120G
U9C A19G A21C C35U A49G A52U C87U U102C U151C
U9C A19U C36G G62C C72G C87U U135A
U9C A20U C75G C76U U82A C85A C96U A106C
U9C A22G U45A C87G G100U
U9C A24G
U9C A26U C38U C54A A66C U78A A89C A97G
U9C A28U C32G G94C A98U A106U A137G G140A
U9C A29C G92U C95A C116A
U9C A29U C69U C76A C85U C125G A137C G141U
U9C A29U C72U G84A
U9C A29U G48A C96U
U9C A37U G92A U102G C108U
U9C A40G A64G C87A
U9C A40G C85A A110G
U9C A49U A52G G92U A147C
U9C A52G C93U A115U C116G
U9C A60C G81A A137U
U9C A60C U82G G84A G86U C118G
U9C A110U
U9C C10U C32A A39U A49C A60C G65U A66U G83A C87G
U9C C18U G71C U82A C85G U146G A150C
U9C C27A C54A U61G A73G G92U C93U C116U
U9C C27U A40U G92A C95A
U9C C27U A41U A49U A60C A66G C76A A91U G140C U146A U148G
U9C C27U G84U G126U

Polymerase ribozyme fitness (log ratio), -4.15:
U9C C10G
